# Reference: the supplement of paper PMC8728848
# Some of the results follow.
# B1: CGL (Crenomytilus grayanus), H2FH31 (protein)
# chain: MTTFLIKHKASGKFLHPYGGSSNPANNTKLVLHSDIHERMYFQFDVVDERWGYIKHVASGKIVHPYGGQANPPNETNMVLHQDRHDRALFAMDFFNDNIMHKGGKYIHPKGGSPNPPNNTETVIHGDKHAAMEFIFVSPKNKDKRVLVYA
# What was measured:
# Experiment in all cases: glycan array binding signal (z-score within array); higher = stronger binding
# Settings in all cases: glycan notation: IUPAC condensed, linker removed
# [1] = target: Neu5Ac(a2-6)Gal(b1-4)GlcNAc(b1-2)Man(a1-3)[GlcNAc(b1-4)][Neu5Ac(a2-6)Gal(b1-4)GlcNAc(b1-2)Man(a1-6)]Man(b1-4)GlcNAc(b1-4)GlcNAc
# Procedure, shortened: (§1)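 Arrays were curated from the Consortium for Functional Glycomics database, 3228 in total, and kept only where the protein sequence was available. Binding is expressed as a within-array Z-score. This score was averaged across arrays of the same protein sequence at different concentrations or buffers and across linkers, and negative values can be read as non-binding.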
# [2] = target: Neu5Ac(a2-6)Gal(b1-4)GlcNAc(b1-2)Man(a1-3)[Man(a1-6)]Man(b1-4)GlcNAc(b1-4)GlcNAc
# Procedure, shortened: as §1
# [3] = target: Neu5Ac(a2-6)Gal(b1-4)GlcNAc(b1-2)Man(a1-3)[Neu5Ac(a2-3)Gal(b1-4)GlcNAc(b1-2)Man(a1-6)]Man(b1-4)GlcNAc(b1-4)GlcNAc
# Procedure, shortened: as §1
# [4] = target: Neu5Ac(a2-6)Gal(b1-4)GlcNAc(b1-2)Man(a1-3)[Neu5Ac(a2-6)Gal(b1-4)GlcNAc(b1-2)Man(a1-6)]Man(b1-4)GlcNAc(b1-4)GlcNAc
# Procedure, shortened: as §1
# [5] = target: Neu5Ac(a2-6)Gal(b1-4)GlcNAc(b1-2)Man(a1-3)[Neu5Ac(a2-6)Gal(b1-4)GlcNAc(b1-2)Man(a1-6)]Man(b1-4)GlcNAc(b1-4)[Fuc(a1-6)]GlcNAc
# Procedure, shortened: as §1
# [6] = target: Neu5Ac(a2-6)Gal(b1-4)GlcNAc(b1-2)Man(a1-6)Man(b1-4)GlcNAc(b1-4)GlcNAc
# Procedure, shortened: as §1
# [7] = target: Neu5Ac(a2-6)Gal(b1-4)GlcNAc(b1-2)Man(a1-6)[Gal(b1-4)GlcNAc(b1-2)Man(a1-3)]Man(b1-4)GlcNAc(b1-4)GlcNAc
# Procedure, shortened: as §1
# [8] = target: Neu5Ac(a2-6)Gal(b1-4)GlcNAc(b1-2)Man(a1-6)[GlcNAc(b1-2)Man(a1-3)]Man(b1-4)GlcNAc(b1-4)GlcNAc
# Procedure, shortened: as §1
# [9] = target: Neu5Ac(a2-6)Gal(b1-4)GlcNAc(b1-2)Man(a1-6)[Man(a1-3)]Man(b1-4)GlcNAc(b1-4)GlcNAc
# Procedure, shortened: as §1
# [10] = target: Neu5Ac(a2-6)Gal(b1-4)GlcNAc(b1-2)[Neu5Ac(a2-6)Gal(b1-4)GlcNAc(b1-4)]Man(a1-3)[GlcNAc(b1-4)][Neu5Ac(a2-6)Gal(b1-4)GlcNAc(b1-2)[Neu5Ac(a2-6)Gal(b1-4)GlcNAc(b1-6)]Man(a1-6)]Man(b1-4)GlcNAc(b1-4)GlcNAc
# Procedure, shortened: as §1
# [11] = target: Neu5Ac(a2-6)Gal(b1-4)GlcNAc(b1-2)[Neu5Ac(a2-6)Gal(b1-4)GlcNAc(b1-4)]Man(a1-3)[GlcNAc(b1-4)][Neu5Ac(a2-6)Gal(b1-4)GlcNAc(b1-4)Man(a1-6)]Man(b1-4)GlcNAc(b1-4)GlcNAc
# Procedure, shortened: as §1
# [12] = target: Neu5Ac(a2-6)Gal(b1-4)GlcNAc(b1-2)[Neu5Ac(a2-6)Gal(b1-4)GlcNAc(b1-6)]Man(a1-6)[Neu5Ac(a2-6)Gal(b1-4)GlcNAc(b1-2)Man(a1-3)][GlcNAc(b1-4)]Man(b1-4)GlcNAc(b1-4)GlcNAc
# Procedure, shortened: as §1
# [13] = target: Neu5Ac(a2-6)Gal(b1-4)GlcNAc(b1-3)Gal(b1-3)GlcNAc
# Procedure, shortened: as §1
# [14] = target: Neu5Ac(a2-6)Gal(b1-4)GlcNAc(b1-3)Gal(b1-4)GlcNAc
# Procedure, shortened: as §1
# [15] = target: Neu5Ac(a2-6)Gal(b1-4)GlcNAc(b1-3)Gal(b1-4)GlcNAc(b1-2)Man(a1-3)[Neu5Ac(a2-6)Gal(b1-4)GlcNAc(b1-3)Gal(b1-4)GlcNAc(b1-2)Man(a1-6)]GalNAc
# Procedure, shortened: as §1
# [16] = target: Neu5Ac(a2-6)Gal(b1-4)GlcNAc(b1-3)Gal(b1-4)GlcNAc(b1-3)Gal(b1-4)GlcNAc
# Procedure, shortened: as §1
# [17] = target: Neu5Ac(a2-6)Gal(b1-4)GlcNAc(b1-3)Gal(b1-4)GlcNAc(b1-3)Gal(b1-4)GlcNAc(b1-2)Man(a1-3)[Neu5Ac(a2-6)Gal(b1-4)GlcNAc(b1-3)Gal(b1-4)GlcNAc(b1-3)Gal(b1-4)GlcNAc(b1-2)Man(a1-6)]GalNAc
# Procedure, shortened: as §1
# [18] = target: Neu5Ac(a2-6)Gal(b1-4)GlcNAc(b1-3)Gal(b1-4)GlcNAc(b1-3)GalNAc
# Procedure, shortened: as §1
# [19] = target: Neu5Ac(a2-6)Gal(b1-4)GlcNAc(b1-3)Gal(b1-4)GlcNAc(b1-3)[Neu5Ac(a2-6)Gal(b1-4)GlcNAc(b1-3)Gal(b1-4)GlcNAc(b1-6)]GalNAc
# Procedure, shortened: as §1
# [20] = target: Neu5Ac(a2-6)Gal(b1-4)GlcNAc(b1-3)Gal(b1-4)GlcNAc(b1-6)[Gal(b1-3)]GalNAc
# Procedure, shortened: as §1
# [21] = target: Neu5Ac(a2-6)Gal(b1-4)GlcNAc(b1-3)Gal(b1-4)[Fuc(a1-3)]GlcNAc(b1-3)Gal(b1-4)[Fuc(a1-3)]GlcNAc
# Procedure, shortened: as §1
# [22] = target: Neu5Ac(a2-6)Gal(b1-4)GlcNAc(b1-3)GalNAc
# Procedure, shortened: as §1
# [23] = target: Neu5Ac(a2-6)Gal(b1-4)GlcNAc(b1-3)[Neu5Ac(a2-6)Gal(b1-4)GlcNAc(b1-6)]GalNAc
# Procedure, shortened: as §1
# [24] = target: Neu5Ac(a2-6)Gal(b1-4)GlcNAc(b1-6)GalNAc
# Procedure, shortened: as §1
# [25] = target: Neu5Ac(a2-6)Gal(b1-4)GlcNAc(b1-6)[Gal(b1-3)GlcNAc(b1-3)]Gal(b1-4)Glc
# Procedure, shortened: as §1
# [26] = target: Neu5Ac(a2-6)Gal(b1-4)GlcNAc(b1-6)[Gal(b1-3)]GalNAc
# Procedure, shortened: as §1
# [27] = target: Neu5Ac(a2-6)Gal(b1-4)GlcNAc6S
# Procedure, shortened: as §1
# [28] = target: Neu5Ac(a2-6)GalNAc
# Procedure, shortened: as §1
# [29] = target: Neu5Ac(a2-6)GalNAc(b1-4)GlcNAc
# Procedure, shortened: as §1
# [30] = target: Neu5Ac(a2-6)GalNAc(b1-4)GlcNAc6S
# Procedure, shortened: as §1
# [31] = target: Neu5Ac(a2-6)GlcNAc(b1-4)GlcNAc
# Procedure, shortened: as §1
binder,measurement,setting,value
B1,glycan array binding signal (z-score),[1],-0.362
same,glycan array binding signal (z-score),[2],-0.308
same,glycan array binding signal (z-score),[3],-0.337
same,glycan array binding signal (z-score),[4],-0.356
same,glycan array binding signal (z-score),[5],-0.292
same,glycan array binding signal (z-score),[6],-0.255
same,glycan array binding signal (z-score),[7],-0.162
same,glycan array binding signal (z-score),[8],-0.27
same,glycan array binding signal (z-score),[9],-0.418
same,glycan array binding signal (z-score),[10],-0.455
same,glycan array binding signal (z-score),[11],-0.347
same,glycan array binding signal (z-score),[12],-0.332
same,glycan array binding signal (z-score),[13],-0.399
same,glycan array binding signal (z-score),[14],-0.281
same,glycan array binding signal (z-score),[15],-0.229
same,glycan array binding signal (z-score),[16],-0.315
same,glycan array binding signal (z-score),[17],-0.204
same,glycan array binding signal (z-score),[18],-0.355
same,glycan array binding signal (z-score),[19],-0.298
same,glycan array binding signal (z-score),[20],-0.308
same,glycan array binding signal (z-score),[21],-0.337
same,glycan array binding signal (z-score),[22],-0.363
same,glycan array binding signal (z-score),[23],-0.279
same,glycan array binding signal (z-score),[24],-0.338
same,glycan array binding signal (z-score),[25],-0.15
same,glycan array binding signal (z-score),[26],-0.388
same,glycan array binding signal (z-score),[27],-0.326
same,glycan array binding signal (z-score),[28],-0.349
same,glycan array binding signal (z-score),[29],-0.454
same,glycan array binding signal (z-score),[30],-0.355
same,glycan array binding signal (z-score),[31],-0.334
